# Laboratory results taken from PubChem BioAssay AID1476 (National Center for Advancing Translational Sciences (NCATS), 2009).
# About 4,500 (2.2%) of roughly 200,000 compounds were called active. Inconclusive means that the source gave no clear call. Such entries were picked first, then a sample of the others. The call rests on the fitted dose curve; in most records, active means well fitted inhibition curve with a large enough effect; inconclusive means small, poorly fitted or top-dose-only effect, or effect the other way; inactive means flat fitted curve, though single readings scatter. Potencies of inconclusive entries are doubtful fits and often do not repeat.
# Target: Cruzipain (Trypanosoma cruzi) (UniProt P25779)
# Test: qHTS Assay for Promiscuous and Specific Inhibitors of Cruzain (without detergent); further: nearly all actives have a fitted effect of over 40% in size;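 on max response, negative = inhibition: plate controls were enzyme without inhibitor for no effect and buffer without enzyme for full effect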
# Details: purified cruzain, Z-FR-AMC fluorescence, no detergent
# Method in brief: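 Purified cruzain at 1.5 nM, pre-incubated 15 min with compound at room temperature in 100 mM sodium acetate pH 5.5, 5 mM DTT, 0.00005% Triton X-100. Reaction started with 2 uM Z-FR-AMC; AMC fluorescence increase over 60 s gives rate.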
# Potency means the concentration at half of the fitted maximal effect; tags describe the fitted curve by direction and shape.
# Sequence of UniProt P25779 (P25779 whole entry, looked up): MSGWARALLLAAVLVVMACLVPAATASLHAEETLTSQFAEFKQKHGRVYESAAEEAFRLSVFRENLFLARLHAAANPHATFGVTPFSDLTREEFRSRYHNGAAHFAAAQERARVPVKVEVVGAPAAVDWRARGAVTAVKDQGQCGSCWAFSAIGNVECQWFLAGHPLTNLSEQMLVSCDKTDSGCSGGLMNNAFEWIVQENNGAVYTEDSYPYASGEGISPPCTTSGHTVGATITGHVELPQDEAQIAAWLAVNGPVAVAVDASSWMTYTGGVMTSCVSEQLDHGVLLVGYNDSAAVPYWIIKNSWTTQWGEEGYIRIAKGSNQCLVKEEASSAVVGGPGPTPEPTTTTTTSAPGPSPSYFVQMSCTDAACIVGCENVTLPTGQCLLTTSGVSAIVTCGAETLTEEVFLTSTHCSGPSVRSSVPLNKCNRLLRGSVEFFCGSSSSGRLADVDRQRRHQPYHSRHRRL
Structure (SMILES),Potency,"max response, negative = inhibition"
CCOC(=O)c1cc(-c2ccccc2)n(CC(=O)N2CCCC2)c1C,"inconclusive: 25.1 µM [activator, single point]",
Cc1ccc(S(=O)(=O)c2cn(CC(=O)Nc3ccc4c(c3)OCO4)c3ccc(C)cc3c2=O)cc1,"inconclusive: 15.8 µM [inhibitor, single point]",
Cc1ccc(C(=O)C[n+]2cc(Br)cc(Br)c2)cc1[N+](=O)[O-],"inconclusive: 31.6 µM [inhibitor, single point]",
Cc1ccc2c(c1)NC(=O)C(CC(=O)NCCCN1CCN(c3cc(C)ccc3C)CC1)O2 (centres undefined),"inconclusive: 0.158 µM [activator, partial curve, poor fit]",
COc1ccc(NC(=O)CCn2cnnn2)cc1,,inactive: -1.92%
O=C(CN1CCN(c2ccccn2)CC1)Nc1ccc(F)cc1,,inactive: -0.245%
CCN(CC)S(=O)(=O)c1ccc2oc(C(=O)N3CCOCC3)c(C)c2c1,"inconclusive: 3.16 µM [inhibitor, single point]",
Cc1cccc(-c2nnc(SCCOc3ccc4c(C)cc(=O)oc4c3)o2)c1,"inconclusive: 39.8 µM [activator, single point]",
O=C1C(c2ccncc2)=C(O)c2ccccc21,,inactive: -5.58%
NS(=O)(=O)c1ccc(NS(=O)(=O)c2ccc(NC(=O)c3ccc(-c4ccccc4)cc3)cc2)cc1,active: 12.6 µM,
Cc1ccc(NC(=O)Cc2c(Cl)cccc2Cl)cc1S(=O)(=O)N(C)C,"inconclusive: 39.8 µM [inhibitor, single point]",
O=C(COc1ccc(Br)cc1Br)NC(=S)N1CCCc2ccccc21,"inconclusive: 39.8 µM [inhibitor, single point]",
COc1ccc(C(=O)N2CC3(CC(c4cccc([N+](=O)[O-])c4)=NO3)C[C@H]2C(=O)NCC(N)=O)cc1 (some centres undefined),"inconclusive: 39.8 µM [activator, single point]",
Cn1cccc1Cc1nnc(SCC(=O)N2CCc3ccccc32)n1CCc1ccccc1,"inconclusive: 39.8 µM [activator, single point]",
COC(=O)c1cccc(C23CC4(C2)[C@H](CN(Cc2ccc(-c5ccccc5)cc2)[C@@H]4c2ccccc2)C3c2ccccc2)c1 (some centres undefined),active: 12.6 µM,
CC(C)c1ccc(S(=O)(=O)c2nnn3c2nc(N2CCCCC2)c2ccccc23)cc1,"inconclusive: 39.8 µM [inhibitor, single point]",
Cc1cc(=O)oc2cc(OC(C)C(=O)N3CCOCC3)ccc12 (centres undefined),,inactive: -13.2%
COc1ccnc(Oc2ccc(F)cc2)c1C(=O)N/C=N/OCc1c(Cl)cccc1Cl,"inconclusive: 31.6 µM [activator, single point]",
COc1cccc(N2CCN(C(=O)C3C4C=CC5(CN(Cc6ccccc6Cl)C(=O)C35)O4)CC2)c1 (centres undefined),"inconclusive: 39.8 µM [activator, single point]",
COc1cc(/C=N/NC(=O)/C(=C\c2ccc([N+](=O)[O-])cc2)NC(=O)c2ccccc2)cc(OC)c1O,"inconclusive: 39.8 µM [activator, single point]",
Cc1ccc(OCC(=O)N/N=C\c2ccco2)c(C)c1,,inactive: 4.92%
COc1cccc(CNC(=O)c2cc3cc(C)ccc3n2C)c1,,inactive: -9.13%

Structure (SMILES),Potency,"max response, negative = inhibition"
c1ccc2[nH]c(CN3CCOCC3)nc2c1,,inactive: -0.202%
CCCCC(=O)O[C@]1(C(=O)CO)[C@H](C)C[C@H]2[C@@H]3CCC4=CC(=O)C=C[C@]4(C)[C@@]3(F)[C@@H](O)C[C@@]21C,"inconclusive: 31.6 µM [activator, single point]",
Cc1ccc(NC(=O)Nc2nnc(CSCCOc3ccc(Cl)cc3)s2)cc1,active: 7.94 µM,
COc1cccc(CN2CCCN(Cc3ccc(F)cc3)S2(=O)=O)c1,,inactive: -5.18%
CCCOc1ccc(C(=O)Nc2cc(-c3nc4ccccc4[nH]3)ccc2C)cc1,,inactive: -2.26%
O=C(O)CSc1nnc(CNc2ccc(Cl)cc2)n1Cc1ccccc1,"inconclusive: 39.8 µM [activator, single point]",
O=C(NC(=S)Nc1ccc(N2CCCC2)cc1)c1ccccc1[N+](=O)[O-],"inconclusive: 31.6 µM [inhibitor, single point]",
COc1ccc(-c2nn(C)c3sc(C(=O)Nc4cc(OC)c(OC)c(OC)c4)cc23)cc1OC,"inconclusive: 7.94 µM [activator, full curve]",
CCCN(C(=O)c1c(C)oc2ncn(CC(C)C)c(=O)c12)c1ccccc1C,,inactive: 17.8%
CCCCC(CC)CNC(=O)c1ccc(Cn2c(=O)[nH]c3cc(OC)c(OC)cc3c2=O)cc1 (centres undefined),,inactive: -4.48%
O=C(OCCN1C(=O)c2ccccc2C1=O)c1cc(S(=O)(=O)N2CCOCC2)ccc1Cl,"inconclusive: 39.8 µM [activator, single point]",
COc1ccc(CCNC(=O)c2c(Nc3ccccc3C)sc(C(=O)c3ccccc3)c2N)cc1OC,"inconclusive: 39.8 µM [activator, single point]",
Cc1c(N=Cc2c(O)n(C)c(=O)c3ccccc23)c(=O)n(-c2ccccc2)n1C,"inconclusive: 39.8 µM [activator, single point]",
Cc1cc(C)c2oc(-c3cccc(NC(=O)c4ccc(F)cc4)c3)nc2c1,"inconclusive: 31.6 µM [inhibitor, single point]",
Cc1cc2nc(-c3ccc(SCc4ccc(C#N)cc4)nc3)[nH]c2cc1C,"inconclusive: 39.8 µM [inhibitor, single point]",
COc1cc(CCC(=O)NCc2ccc3c(c2)CCN3C(=O)c2cccc(C)c2)cc(OC)c1OC,,inactive: 3.26%
COc1cc(C2c3c(oc4ccccc4c3=O)C(=O)N2Cc2ccccc2Cl)ccc1O (centres undefined),,inactive: 3.91%
Cc1cc(C)c2oc(-c3cccc(NC(=O)c4cc5ccccc5o4)c3)nc2c1,,inactive: 11.1%
CC(C)OC(=O)/C(=C\c1ccc2c(c1)c1ccccc1n2C)NC(=O)c1ccccc1,"inconclusive: 31.6 µM [inhibitor, single point]",
Cc1cc2cc(CN(Cc3cccs3)S(=O)(=O)c3ccc4c(c3)OCCO4)c(=O)[nH]c2cc1C,"inconclusive: 31.6 µM [inhibitor, single point]",
CCOC(=O)CN(C(=O)CSc1nnc(CNc2ccc(C)cc2C)n1CC)c1ccccc1,"inconclusive: 25.1 µM [activator, single point]",
CCCSc1nc2sc3c(c2c(=O)[nH]1)CCN(Cc1ccccc1)C3,"inconclusive: 39.8 µM [inhibitor, single point]",

Structure (SMILES),Potency,"max response, negative = inhibition"
Cc1ccc(Cl)cc1Nc1sc(C(=O)c2ccccc2)c(N)c1S(=O)(=O)c1ccccc1,"inconclusive: 5.01 µM [inhibitor, single point]",
COc1ccc(NC(=O)CSC2=Nc3ccccc3C3=NC(Cc4ccccc4)C(=O)N23)cc1Cl (centres undefined),active: 15.8 µM,
Fc1ccc(-c2nnc3ccc(N4CCCC4)nn23)cc1,"inconclusive: 31.6 µM [activator, single point]",
Cc1ccc(N2CCN(C(=O)C3CCC(CNS(=O)(=O)c4ccc(Br)s4)CC3)CC2C)cc1 (centres undefined),,inactive: -24.1%
CC(C)c1ccc(-c2nc(N3CCCCC3)[nH]c(=O)c2C#N)cc1,"inconclusive: 25.1 µM [inhibitor, single point]",
CS(=O)(=O)N1CCc2cc(S(=O)(=O)Nc3ccc4oc5c(c4c3)CCCC5)ccc21,"inconclusive: 25.1 µM [inhibitor, single point]",
Cc1ccc(NC(=O)Cn2c(=O)c(C(F)(F)F)nc3ccccc32)c(C)c1,,inactive: -4.48%
CCCCN(CC)CCNC(=O)Cn1c(=O)c2cccn2c2cccnc21,,inactive: -12.3%
CCN(CC)S(=O)(=O)c1ccc2c(c1)nc(SCC(=O)NC1CC1)n2-c1ccccc1OC,"inconclusive: 31.6 µM [activator, single point]",
CCC(C)(C)n1nnnc1CN1CCC(n2c(C)nc3cc(C(F)(F)F)ccc32)CC1,"inconclusive: 20 µM [activator, partial curve]",
CCC/C=C(\CCC)C(NS(=O)(=O)CC12CCC(CC1=O)C2(C)C)c1ccc(C(=O)OC)cc1 (centres undefined),,inactive: 9.65%
COc1ccc(C(=O)Nc2ccc(NC(=O)c3cccs3)cc2)cc1Cl,active: 7.94 µM,
COCCNC(=O)CSc1nc2cc(OC)c(OC)cc2c(=O)n1CCC1=CCCCC1,"inconclusive: 20 µM [activator, partial curve]",
Cc1ccc2c(CC(=O)Nc3c(C(=O)Nc4cccc(Cl)c4)oc4ccccc34)coc2c1C,"inconclusive: 39.8 µM [inhibitor, single point]",
Cc1ccc2nc(SCc3nc(-c4ccccc4C)no3)[nH]c2c1,,inactive: -6.9%
CN(C)c1ncnc2ccc(-c3cccnc3)cc12,,inactive: 0.952%
CCOc1cc(N2CCOCC2)c(OCC)cc1NC(=O)COC(=O)CCc1c[nH]c2ccccc12,"inconclusive: 31.6 µM [activator, single point]",
Cc1cccc(N2CCN(c3ccc(N4C(=O)CCCC4=O)cc3[N+](=O)[O-])CC2)c1C,"inconclusive: 31.6 µM [activator, single point]",
COc1cc(OC)cc(C(=O)N/N=C/c2ccc(OC)c(COc3ccc4ccccc4c3)c2)c1,active: 7.94 µM,
Cc1nc2cc(F)ccc2n1C1CCN(Cc2nnnn2CCc2ccccc2)CC1,"inconclusive: 39.8 µM [activator, single point]",
